Where “and” joins values, the source holds several entries; their conditions need not be identical. Identical values can stand only once. Among all 110,000 compounds or so, about 230 (0.21%) showed an effect of 50% or more. The list shows a part of the results.
target: DPAP1 (Plasmodium falciparum, UniProt Q8IIJ9); assay: primary screen, percent inhibition; read by cleavage of a fluorogenic dipeptide substrate; higher = more effect of the substance; design: species or system P. falciparum D10 trophozoite lysates; single well
Sequence (Q8IIJ9 whole entry, looked up): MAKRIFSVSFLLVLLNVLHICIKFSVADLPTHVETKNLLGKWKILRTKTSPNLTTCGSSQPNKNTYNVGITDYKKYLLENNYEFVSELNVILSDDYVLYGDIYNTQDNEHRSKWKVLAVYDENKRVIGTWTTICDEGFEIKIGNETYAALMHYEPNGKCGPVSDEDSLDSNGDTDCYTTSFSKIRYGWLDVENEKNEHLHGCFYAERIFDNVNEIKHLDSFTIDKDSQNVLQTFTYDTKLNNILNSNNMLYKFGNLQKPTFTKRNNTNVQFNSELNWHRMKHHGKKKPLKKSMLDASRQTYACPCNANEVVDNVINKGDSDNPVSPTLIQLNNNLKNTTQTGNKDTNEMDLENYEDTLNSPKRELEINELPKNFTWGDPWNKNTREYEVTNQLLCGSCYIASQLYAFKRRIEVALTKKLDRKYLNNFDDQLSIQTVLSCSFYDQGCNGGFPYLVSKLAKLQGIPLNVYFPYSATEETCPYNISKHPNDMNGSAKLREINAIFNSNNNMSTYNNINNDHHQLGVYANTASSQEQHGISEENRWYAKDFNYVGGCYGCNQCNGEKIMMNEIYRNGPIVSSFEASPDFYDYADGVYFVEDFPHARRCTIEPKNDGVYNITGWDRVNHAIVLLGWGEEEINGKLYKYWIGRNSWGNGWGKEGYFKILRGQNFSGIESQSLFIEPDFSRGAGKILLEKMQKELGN
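Note: 30 min substrate incubation versus DMSO and 10 µM JCP410 controls.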

Structure (SMILES)	% Inhibition @ 10 uM
CCc1ccc(C(=O)Nc2cc(C)ccc2C)s1	1.8%
CC(C)c1ccc(NC(=O)C(c2ccccc2)c2ccccc2)cc1	-0.127%
COc1ccccc1-c1ccc(C=C2C(=O)OC(C)(C)OC2=O)o1	-1.93%
CCN(CC)C(=O)c1sc(NC(=O)c2ccc(OC)cc2OC)c(C#N)c1C	-4.41%
Fc1ccc(CN2CCN(c3cccc(Cl)c3)CC2)c(F)c1	-7.49%
O=C(O)c1cnc2sccn2c1=O	3.27%
CCN(CC)CCCOc1ccc(Cl)c(C)c1	2.16%
COc1ccccc1CNC(=O)CSc1ccc(C)cc1	3.84%
COc1ccc(C2C(C#N)=C(N)Oc3[nH]nc(-c4ccc(Br)cc4)c32)cc1OC (stereo not drawn)	1.35%
O=C(CCCC(=O)Nc1ccc(F)c(Cl)c1)Nc1ccc(F)c(Cl)c1	1.57%
CC(=O)Nc1cccc(-c2cn3ccccc3n2)c1	-1.82%
CCc1nn(C(C)C(=O)NCCc2ccccc2)c(=O)c2cc3occc3n12 (stereo not drawn)	1.38%
Cc1nc(OCc2ccccc2)c2sc3nc4c(cc3c2n1)COC(C)(C)C4	14%
CCCSc1nc(O)cc(=O)n1CC	-6.12%
CCCc1ccc(S(=O)(=O)NCCc2ccncc2)cc1	-3.49%
CCOc1ccc(NC(=O)CSCc2ccc(Br)cc2)cc1	2.01%
COc1cccc(C2C3=C(O)CC(C)(C)CC3=Nc3nc(SCCN4CCOCC4)nc(O)c32)c1 (stereo not drawn)	1.02%
Cc1cccc(CN2CCC(CNC(=O)C3c4ccccc4C(=O)N(C)C3c3cccs3)CC2)c1 (stereo not drawn)	-4.8%
Cc1oc(-c2ccccc2F)nc1CS(=O)(=O)CC(=O)NC1CCCC(C)C1C (stereo not drawn)	-0.138%
O=C(c1cc(-c2ccc(Cl)c(Cl)c2)on1)N1CCCCCC1	-7.85%
CCn1c2ccccc2c2cc(CNc3cccc(F)c3)ccc21	-1.81%
O=S(=O)(c1ccccc1)n1nc(-c2ccco2)nc1NCc1ccccc1Cl	2.21%
Cc1ccc(NC(=O)CCCC(=O)Nc2ccc(C)c(C)c2)cc1C	1.37%
N#C/C(=C\c1ccco1)c1nc(-c2ccccc2)cs1	1.08%
CCOCCCNC(=O)Cn1nc(Cc2cccnc2)c2ccccc2c1=O	-2.92%
CCOC(=O)N1CCN(S(=O)(=O)c2ccc(C)c(C)c2C)CC1	-1.84%

Structure (SMILES)	% Inhibition @ 10 uM
CN1CCN(c2nn3nnnc3c3ccccc23)CC1	3.87%
CCN(C(=O)c1cc([N+](=O)[O-])ccc1Cl)c1ccccc1	-1.86%
Brc1cccc(-c2nnc(CN3CCOCC3)o2)c1	1.49%
O=C(O)CCS(=O)(=O)c1ccc2nc(O)oc2c1	-7.66%
CCCN(CCO)Cc1ccccn1	-0.446%
O=C(O)/C(=N\O)c1ccc(CCc2ccccc2)s1	3.25%
CCN(CC)CC(=O)Nc1ccc(Br)cc1C(=O)c1ccccc1	-3.76%
COc1ccc(C2C(C(=O)c3ccc(C)cc3)=C(O)C(=O)N2CC(C)C)c(OC)c1 (stereo not drawn)	0.408%
O=C(O)C1CC(O)CN1S(=O)(=O)c1cccc2nsnc12 (stereo not drawn)	-2.17%
O=C(c1ccc(CN2CCOCC2)o1)C(F)(F)F	-2.48%
CCC(C)C(/N=C/C1=C(O)OC(C)(C)OC1=O)C(=O)O (stereo not drawn)	-1.47%
COc1ccc(-c2cc(C(F)(F)F)nc(SCC(=O)Nc3cc(C)on3)n2)cc1OC	4.08%
Cc1ccc(S(=O)(=O)N(CC(=O)NCc2ccccn2)c2ccccc2)cc1	-0.796%
COc1ccccc1C(=O)N1CCN(c2ccc(N3CCOCC3)nn2)CC1	-5.25%
CCCN1CCC(NC(Cc2ccccc2)c2ccccc2)CC1 (stereo not drawn)	1.88%
COCCCN(Cc1cccs1)S(=O)(=O)c1csc(C(N)=O)c1	-1.23%
CCOC(=O)c1cn(C)c(=O)c2ccccc12	-3.31%
Sc1nc2ccccc2n2cnnc12	-4.76%
CC(=O)C1=C(C)NC(C)=C(C(C)=O)C1c1cccs1	-1.2%
CCOc1cc2c(cc1OCC)C1C(C(=O)NCc3cccnc3)c3ccccc3C(=O)N1CC2 (stereo not drawn)	2.97%
O=C(O)CCC(=O)N1N=C(c2ccccc2)CC1c1ccc2c(c1)OCO2 (stereo not drawn)	0.361%
Cc1noc(/C=C/N(C)C)c1S(=O)(=O)N1CCCC(C(=O)NCc2cccs2)C1 (stereo not drawn)	-6.52%
CC(c1ccccc1)N1C(=O)CN(C2CCCCCC2)C(=O)C1c1ccccc1F (stereo not drawn)	-7.85%
CCc1c(C)c2ccc3c(c2oc1=O)CN(c1cccc(C)n1)CO3	5.1%
O=C(O)C1C2CCC(C2)C1C(=O)NCC1CCCO1 (stereo not drawn)	-2.76%
O=C(CCCc1c[nH]c2ccccc12)NC1CC1	-0.736%

Structure (SMILES)	% Inhibition @ 10 uM
COC(=O)c1nnn(-c2cc(C)ccc2OC)c1N	1.76%
Cc1cc(C)nc(-n2/c(=N/c3ccccc3)cc(O)c3c(C)n(-c4ccccc4)c(=O)nc32)n1	-3.46% and -6.99%
Cc1nc2sc3c(NCC4CCCO4)ncnc3c2c2c1COC(C)(C)C2 (stereo not drawn)	0.415%
CCOc1ccccc1/N=C(\C)C1=C(O)c2ccccc2C1=O	-1.07%
CS(=O)(=O)N1CCN(Cc2ccccc2C(F)(F)F)CC1	1.81%
CCOc1ccc(/C=c2\sc3nc(-c4ccccc4OC)nn3c2=O)cc1OC	-6.78%
Cc1cc(OCC(=O)N(C)C)c2c(-c3ccccc3)cc(=O)oc2c1	-1.6%
CCN(CC)CCCN(C)C(=O)Nc1cn(CC(C)C)c(=O)c2ccccc12	-3.83%
Cc1noc2ncn(CC(=O)N3CCC4(CC3)OCCO4)c(=O)c12	-4.59%
CCOc1ccccc1C(=O)Nc1cccc(OC)c1	2.22%
COc1cccc(CN2CCN(C(=O)c3ccc(F)cc3)CC2)c1	-3.6%
CC(CNC(=O)CCc1nnc2n(Cc3ccccc3Cl)c(=O)c3ccccc3n12)c1ccccc1 (stereo not drawn)	-0.692%
CN(C(=O)c1ccccc1N)C1CCCCC1	-3.33%
CCn1c(SCC(N)=O)nnc1-c1nonc1N	2.62%
Cc1nc2c(-c3ccc(F)cc3)c(C)nn2c(C)c1CCC(=O)NC(C)c1ccccc1 (stereo not drawn)	-2.25%
CCN(CC)c1nc2c(c(=O)n(C)c(=O)n2C)n1CC(=O)c1ccc(Br)cc1	0.475%
O=C(NC(c1ccccc1)c1c(O)ccc2ccccc12)c1ccco1 (stereo not drawn)	5.7%
COc1cc(/C=C2\C(=O)NC(=O)N(Cc3ccc(F)cc3)C2=O)ccc1O	3.95%
COc1cc2c(cc1OC)C(C)N(C(=O)c1cc3c(s1)-c1ccccc1OC3)CC2 (stereo not drawn)	3.45%
CC(=O)NS(=O)(=O)c1ccc(NC(=O)Cc2cccc3ccccc23)cc1	-1.61%
Cc1nc2cc(-c3ccccc3)nn2c(C)c1CC(=O)NCCCc1ccccc1	-2.45%
O=C(CNS(=O)(=O)c1ccc(Cl)cc1)Nc1ccc2c(c1)OCCO2	4.5%
N#C/C(=C\c1ccc(Cl)cc1Cl)c1nc(-c2cc3cc(Br)ccc3oc2=O)cs1	5.64%
O=C(Cn1ncc2c3ccccc3nc-2c1O)NCCCN(Cc1ccco1)C1CCCC1	-4.51%
Nc1sc2c(c1C(=O)NCCc1ccccc1)CCC2	2.01%
COc1cccc(/C=C2\NC(=O)N(Cc3ccccc3)C2=O)c1OC(C)C	-2.19%

Structure (SMILES)	% Inhibition @ 10 uM
FC(F)(F)c1ccc(CNc2ccc3c[nH]nc3c2)cc1	-5.2%
CC(C)CC(C(=O)NCC#N)c1ccc2ccccc2c1 (stereo not drawn)	-4.72%
CS/C(=N\Cc1ccco1)Nc1cc(-c2ccccc2)[nH]n1	1.12%
CCOC(=O)N1CCN(c2c(Nc3cc(C)[nH]n3)c(=O)c2=O)CC1	-3.21%
Cn1c2c(c(=O)n(C)c1=O)C(NC(=O)c1ccccc1F)(C(F)(F)F)C(=O)N2 (stereo not drawn)	-9.93%
COc1cccc(-n2nnc3c(=O)n(CC(N)=O)cnc32)c1	-2.16%
CC(=O)c1ccc(NC(=O)c2ccc(C(C)C)cc2)cc1	20.3%
CCN1CCN(c2nc3c(S(=O)(=O)c4cc(C)ccc4C)nnn3c3ccsc23)CC1	-0.538%
OC1=C2C(=Nc3ccccc3NC2c2ccc3c(c2)OCO3)CC(c2ccccc2)C1 (stereo not drawn)	-2.89%
COc1cc(NC(=O)c2ccc(N(C)C)cc2)c(OC)cc1NC(C)=O	-5.23%
COc1cccc(C2=Nc3c(c(=O)[nH]c(=O)n3CC(C)C)C(C(F)(F)F)(C(F)(F)F)N2)c1	-1.52%
Cc1ccc(S(=O)(=O)c2nnn3c2nc(N2CCN(C)CC2)c2cc(Cl)ccc23)cc1C	-4.85%
O=S(=O)(c1ccccc1)c1cnc2ccc(Cl)cc2c1N1CCC2(CC1)OCCO2	-6.24%
CSc1ccc(/C=C2/NC(=O)NC2=O)cc1	-2.87%
Cc1ccc(OCCOC(N)=O)cc1	-2.51%
CCOc1ccc(C(=O)Nc2cc(C)ccn2)cc1	-2.19%
COc1ccccc1/N=c1\scc(-c2ccc(Br)cc2)n1CCCO	-6.67%
CCOC(=O)c1ccc(NS(C)(=O)=O)cc1	3.25%
O=C(CN1C(=O)c2cccc3cccc1c23)Nc1ccc2c(c1)OCO2	-6.62%
O=C1C2CC=C(Cl)CC2C(=O)N1c1ccccc1 (stereo not drawn)	3.72%
NC(=O)Cn1c(=O)n(Cc2ccccc2)c(=O)c2oc3ccccc3c21	1.68%
OC1CCCN(Cc2c[nH]c3ccccc23)C1 (stereo not drawn)	5.32%
N#Cc1cnc2c(-c3ccccc3)c(COc3ccccc3)nn2c1N	3.36%
Nc1c2c(nc3ccccc13)N(c1cccc(Cl)c1)CC2	5.04%

Reference: paper PMC6919601, “Identification of Plasmodium dipeptidyl aminopeptidase allosteric inhibitors by high throughput screening” (PLoS ONE, 2019)
